For assay [1], the system named is HSkMC (human skeletal muscle cells). In words: cytotoxicity call (relative viability < 0.9). The note with it: 10 µM.
The test system of assay [2] is HepG2. In words: cytotoxicity call (relative viability < 0.9). The note with it: 10 µM.
The subject of assay [3] is S. aureus RN4220. As to the kind of experiment: growth inhibition call (relative growth <= 0.2). The note with it: 50 µM.

The list shows a part of the results.

Turning to `O=C(CCCCCCC(=O)Nc1ccc([C@H]2O[C@@H](CSc3nc4ccccc4o3)C[C@H](c3ccccc3)O2)cc1)NO`, the cytotoxicity call in assay [1] was “inactive”. In addition, the cytotoxicity call in assay [2] was “active”. Besides, the growth inhibition call in assay [3] is “inactive”.

For the compound `CN1C(=O)c2cc(NS(C)(=O)=O)ccc2OC[C@@H]2O[C@H](CC(=O)N3CCOCC3)CC[C@H]21`, the cytotoxicity call in assay [1] and in assay [2] was “inactive” in each case. Further, the growth inhibition call in assay [3] is “inactive”.

For the compound `COc1cc(-c2coc3cc(OCc4ccccc4)c(OC)c(O)c3c2=O)cc(OCc2ccccc2)c1OC`, the cytotoxicity call in assay [1] and in assay [2] was “inactive” in each case. Further, in assay [3], the growth inhibition call is “inactive”.

As for `C[C@H](CO)N1C[C@H](C)[C@H](CN(C)Cc2ccc(C(=O)Nc3ccccc3N)cc2)Oc2ccc(NC(=O)Cc3cn(C)c4ccccc34)cc2C1=O`, the cytotoxicity call in assay [1] and in assay [2] was “inactive” each time. Moreover, in assay [3], the growth inhibition call is “inactive”.

Turning to `Cc1cc(S(=O)(=O)NCC(=O)O)ccc1F`, the cytotoxicity call in assay [1] and in assay [2] was “inactive” each time. The growth inhibition call in assay [3] is “inactive”.

With `C[C@@H]1CN([C@@H](C)CO)C(=O)c2cccc(NC(=O)c3ccc(-c4nccs4)cc3)c2O[C@@H]1CN(C)S(C)(=O)=O`, the cytotoxicity call in assay [1] and in assay [2] was “inactive” throughout. Also, the growth inhibition call in assay [3] was “inactive”.

Turning to `Cc1noc(C)c1NC(=O)Nc1ccc2c(c1)C(=O)N([C@H](C)CO)C[C@H](C)[C@@H](CN(C)C(=O)NC(C)C)O2`, the cytotoxicity call in assay [1] and in assay [2] was “inactive” throughout. In assay [3], the growth inhibition call was “inactive”.

In the case of `C[C@@H]1CCCCO[C@@H](CN(C)C(=O)c2ccccc2)[C@H](C)CN([C@H](C)CO)C(=O)c2cc(NS(=O)(=O)c3ccccc3)ccc2O1`, the cytotoxicity call in assay [1] and in assay [2] was “inactive” each time. Also, in assay [3], the growth inhibition call was “inactive”.

As to `CC=Cc1ccc2n(c1=O)C[C@H]1[C@H](CO)[C@@H](C(=O)NCCc3cn(C)cn3)N(C(=O)C3CC3)[C@@H]21`, the cytotoxicity call in assay [1] and in assay [2] was “inactive” in each case. The growth inhibition call in assay [3] is “inactive”.

As for `C[C@@H]1CN([C@H](C)CO)C(=O)c2cc(-c3cncnc3)cnc2O[C@@H]1CN(C)C(=O)Nc1ccc2c(c1)OCO2`, the cytotoxicity call in assay [1] and in assay [2] was “inactive” each time. Also, the growth inhibition call in assay [3] was “inactive”.

Take `NC(=O)N1c2ccccc2C=Cc2ccccc21`: the cytotoxicity call in assay [1] and in assay [2] was “inactive” in each case. Further, the growth inhibition call in assay [3] is “inactive”.

As for `COc1ccc(cc1)NC(=O)N1CC[C@]2(CC1)CN([C@H](CO)c1[nH]c3cc(ccc3c12)OC)C(=O)CN1CCOCC1`, the cytotoxicity call in assay [1] and in assay [2] was “inactive” each time. In assay [3], the growth inhibition call is “inactive”.

For `C[C@@H]1CCCCO[C@@H](CN(C)C(=O)c2ccncc2)[C@@H](C)CN([C@H](C)CO)C(=O)c2cc(NC(=O)NC3CCCCC3)ccc2O1`, the cytotoxicity call in assay [1] and in assay [2] was “inactive” throughout. The growth inhibition call in assay [3] was “inactive”.

Regarding `O=C(C[C@@H]1CC[C@H]2[C@@H](COC[C@@H](O)CN2C(=O)c2ccccc2)O1)NCCCN1CCOCC1`, the cytotoxicity call in assay [1] and in assay [2] was “inactive” each time. For the same compound, in assay [3], the growth inhibition call was “inactive”.

`C[C@@H]1CN([C@H](C)CO)C(=O)c2cccc(NC(=O)c3ccc(-c4nccs4)cc3)c2O[C@H]1CN(C)S(=O)(=O)c1ccc(Cl)cc1`: the cytotoxicity call in assay [1] and in assay [2] was “inactive” each time. For the same compound, in assay [3], the growth inhibition call was “inactive”.

As to `CC1OC(OC2C(CO)OC(OC3C(CO)OC(O)C(O)C3O)C(O)C2O)C(O)C(O)C1NC1C=C(CO)C(O)C(O)C1O` (stereo not drawn), the cytotoxicity call in assay [1] and in assay [2] was “inactive” each time. Further, in assay [3], the growth inhibition call was “inactive”.

Take `Cc1ccc(S(=O)(=O)N(C)C[C@H]2Oc3ccc(NC(=O)NC(C)C)cc3C(=O)N([C@H](C)CO)C[C@H]2C)cc1`: the cytotoxicity call in assay [1] and in assay [2] was “inactive” throughout. The growth inhibition call in assay [3] was “inactive”.

Take `COc1ccc(C#Cc2ccc3c(c2)[C@]2(C(=O)N3)[C@H](c3ccc(O)cc3)N3[C@H](c4ccccc4)[C@H](c4ccccc4)OC(=O)[C@H]3[C@@H]2C(=O)O)cc1`: the cytotoxicity call in assay [1] and in assay [2] was “inactive” throughout. Moreover, in assay [3], the growth inhibition call is “inactive”.

On to `C[C@H](CO)N1C[C@H](C)[C@@H](CN(C)S(=O)(=O)c2ccc(F)cc2)Oc2c(NS(=O)(=O)c3cccs3)cccc2C1=O`, for which the cytotoxicity call in assay [1] and in assay [2] was “inactive” in each case. Besides, the growth inhibition call in assay [3] is “inactive”.

Take `CC(=O)NS(=O)(=O)c1ccccc1`: the cytotoxicity call in assay [1] and in assay [2] was “inactive” each time. Further, the growth inhibition call in assay [3] is “inactive”.

Consider `CO/N=C(\C(=O)N[C@@H]1C(=O)N2C(C(=O)O)=C(CSc3nnnn3C)CS[C@H]12)c1csc(N)n1`, for which the cytotoxicity call in assay [1] and in assay [2] was “inactive” in each case. Moreover, the growth inhibition call in assay [3] is “inactive”.

On to `C[C@H](CO)N1C[C@H](C)[C@H](CN(C)C(=O)NC2CCCCC2)Oc2c(NC(=O)C3CCOCC3)cccc2C1=O`, for which the cytotoxicity call in assay [1] and in assay [2] was “inactive” throughout. Besides, the growth inhibition call in assay [3] was “inactive”.

In the case of `CC1(C)C[C@@](C)(c2ccccc2)c2cc(SC#N)ccc2N1`, the cytotoxicity call in assay [1] and in assay [2] was “inactive” each time. Moreover, the growth inhibition call in assay [3] was “inactive”.

As for `Cc1noc(C)c1NC(=O)Nc1ccc2c(c1)C(=O)N([C@H](C)CO)C[C@@H](C)[C@H](CN(C)S(=O)(=O)c1ccc(Cl)cc1)OCCCC[C@@H](C)O2`, the cytotoxicity call in assay [1] and in assay [2] was “inactive” in each case. Besides, in assay [3], the growth inhibition call is “inactive”.

Turning to `C[C@@H]1CN([C@@H](C)CO)C(=O)Cc2cc(NS(=O)(=O)c3cn(C)cn3)ccc2O[C@H]1CN(C)C(=O)NC1CCCCC1`, the cytotoxicity call in assay [1] and in assay [2] was “inactive” each time. Moreover, the growth inhibition call in assay [3] was “inactive”.

On to `C[C@@H]1CCCCO[C@@H](CN(C)C(=O)c2ccncc2)[C@@H](C)CN([C@@H](C)CO)C(=O)c2cc(NS(=O)(=O)c3ccc(Cl)cc3)ccc2O1`, for which the cytotoxicity call in assay [1] and in assay [2] was “inactive” throughout. Further, the growth inhibition call in assay [3] is “inactive”.

The values above are taken from the antibiotic and cytotoxicity screens of Wong et al. (2023).
